Test results taken from publication PMC4336329 (PLoS ONE, 2015).
Screen size: about 310,000 compounds; about 14,000 (4.5%) showed an effect of 50% or more. Effects have a minus sign here. This is one part of the list.

The molecules below were run against human ether-à-go-go-related gene (hERG) potassium channel (human, UniProt Q12809) (assay: primary screen, population patch clamp on CHO cells stably expressing hERG).
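Note: peak tail current of the secondary pulse compared with the same well before compound.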

human ether-à-go-go-related gene (hERG) potassium channel, sequence (Q12809 whole entry, looked up): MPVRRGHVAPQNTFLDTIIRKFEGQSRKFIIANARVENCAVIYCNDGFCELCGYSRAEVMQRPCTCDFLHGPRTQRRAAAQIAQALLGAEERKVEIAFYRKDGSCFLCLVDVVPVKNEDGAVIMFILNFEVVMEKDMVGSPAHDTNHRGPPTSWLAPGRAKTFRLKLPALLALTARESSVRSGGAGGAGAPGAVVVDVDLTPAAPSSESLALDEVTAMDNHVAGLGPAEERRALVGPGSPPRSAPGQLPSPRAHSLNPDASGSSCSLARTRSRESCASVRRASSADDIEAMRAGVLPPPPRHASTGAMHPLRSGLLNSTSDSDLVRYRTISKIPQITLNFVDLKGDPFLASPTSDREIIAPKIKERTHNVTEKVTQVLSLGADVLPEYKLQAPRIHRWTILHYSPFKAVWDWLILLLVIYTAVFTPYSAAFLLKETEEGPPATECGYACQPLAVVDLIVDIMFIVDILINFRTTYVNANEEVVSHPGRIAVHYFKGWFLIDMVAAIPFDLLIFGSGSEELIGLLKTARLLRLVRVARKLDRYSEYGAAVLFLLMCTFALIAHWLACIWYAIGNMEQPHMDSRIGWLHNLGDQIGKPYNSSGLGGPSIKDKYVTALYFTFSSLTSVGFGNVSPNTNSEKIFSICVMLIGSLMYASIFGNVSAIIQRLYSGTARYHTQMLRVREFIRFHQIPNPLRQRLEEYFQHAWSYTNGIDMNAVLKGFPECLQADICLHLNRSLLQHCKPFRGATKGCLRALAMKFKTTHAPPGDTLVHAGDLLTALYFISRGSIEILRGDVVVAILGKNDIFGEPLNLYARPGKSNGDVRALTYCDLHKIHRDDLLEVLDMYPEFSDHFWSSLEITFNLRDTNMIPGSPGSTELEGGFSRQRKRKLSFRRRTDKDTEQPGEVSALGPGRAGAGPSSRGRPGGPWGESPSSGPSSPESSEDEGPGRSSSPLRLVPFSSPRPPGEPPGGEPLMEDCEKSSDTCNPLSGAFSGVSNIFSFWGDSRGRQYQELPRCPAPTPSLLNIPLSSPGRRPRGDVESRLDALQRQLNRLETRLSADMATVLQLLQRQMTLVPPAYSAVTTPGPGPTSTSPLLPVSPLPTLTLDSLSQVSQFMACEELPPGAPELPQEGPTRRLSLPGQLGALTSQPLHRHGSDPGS

Structure (SMILES)	hERG current change (%, negative = inhibition) at 10uM [%]
COc1ccccc1C1CCN(Cc2cccc3ccccc23)CC1	-13.9
Cc1ccc(NC(=S)NC(=O)C2CCCC2)cc1C	22.8
O=C1/C(=N\S(=O)(=O)c2cccs2)C([n+]2ccc(CCCc3ccccc3)cc2)=C([O-])c2ccccc21	-70.5
O=C(COC(=O)Cc1c[nH]c2ccccc12)NCCc1ccccc1	-2.11
Cc1nc2sc(-c3ccccc3)cc2c(=O)n1-n1cccc1	1.2
O=C(COc1ccc(Cl)cc1)NCCCn1ccnc1	-31.6
O=C(OCC(=O)c1ccc[nH]1)c1ccc(Br)cc1	0.262
Cn1c(SCCOc2ccccc2Cl)nnc1-c1ccncc1	-19.7
O=S(=O)(Nc1cccc(F)c1)c1cccc2nsnc12	3.21
CC(=O)NCCn1c(SCc2ccccc2F)nc2ccccc2c1=O	-13.5
OC1CCN(c2c3c(nc4cc(-c5ccc(Cl)cc5)nn24)CCC3)CC1	-22.6
COc1cc(Cl)c(C)cc1NC(=O)COC(=O)c1cc[n+]([O-])cc1	-16.4
CC(C)COc1ccc(Cc2c(O)[nH]c(=S)[nH]c2=O)cc1	15
Cc1ccc(SCC(=O)N(C)CC(=O)Nc2cccc(F)c2)c(C)c1	-13.6
CCN(CC)c1ccc(NC(=O)COC(=O)COc2ccccc2[N+](=O)[O-])cc1	3.42
CCOc1cc(C(=O)NCC(=O)N2CCC3(CC2)NCCc2[nH]cnc23)cc(OCC)c1OCC	7.48
O=C(CCNC(=O)c1ccc([N+](=O)[O-])cc1)NC1CCCCCC1	-25.3
COC(=O)C1CCN(C(=O)CSc2nnc(-c3ccncc3)o2)CC1	-21.1
O=C1CSC(c2ccccc2)N1c1nc(-c2ccc(Cl)cc2Cl)cs1 (stereo not shown)	-1.95
COc1ccc(C/C(N)=N/OC(=O)Cc2ccccc2)cc1	-7.03

Structure (SMILES)	hERG current change (%, negative = inhibition) at 10uM [%]
O=C(NCc1cccnc1)c1c(F)c(F)c(F)c(F)c1F	-1.74
OCC1OC(n2cnc3c(NC4CCCCC4)ncnc32)C(O)C1O (stereo not shown)	9.57
CC(=O)/C(=N/Nc1cccc(Cl)c1)N1CCOCC1.Cl	0.998
COc1ccc(N2CCN(C(=O)NCc3ccc(C)cc3)CC2)cc1	13.4
CCC[C@@H](NS(=O)(=O)c1ccc(C)cc1)C(=O)Oc1ccc2c3c(c(=O)oc2c1)CCC3	3.75
CN(C)c1ccc(CN(Cc2ccco2)C(=O)c2ccco2)cc1	-30.1
COc1cc(C)c(NC(c2ccccc2)c2ccccc2)cc1OC	10.6
O=C(CSc1ccc(Cl)cc1)Nc1ccccc1N1CCN(C(=O)c2ccc(Cl)cc2)CC1	-10.7
Cc1cccc(C)c1NC(=O)CN(C)C(=O)C1CC1C (stereo not shown)	-0.74
NC(=O)C1CCN(C2CC(=O)N(Cc3cccs3)C2=O)CC1 (stereo not shown)	0.931
NC(=O)c1ccc(F)cc1	17.7
CCOc1ccc(S(=O)(=O)NCc2ccc3c(c2)OCO3)cc1	8.6
CCN(CC)CCNCC1C(=O)O[C@@H]2C[C@@]3(C)CCC[C@H](C)C3=C[C@H]12 (stereo partly shown)	-13.4
CCOc1cc(C(=O)CSc2nnc(CNc3ccc(Cl)cc3)o2)ccc1NC(=O)CC	-1.83
C[C@@H]1C[C@H]2[C@@H]3CCC4=CC(=O)C=C[C@]4(C)[C@@]3(F)[C@@H](O)C[C@]2(C)[C@@]1(O)C(=O)CO	10.4
CCOC(=O)c1c(NC(=O)CSc2ncn[nH]2)sc(C(C)=O)c1C	-12.7
Cc1ccc(NC(=O)CCn2nc(C)cc2C)cc1	11.4
O=C1c2ccncc2C(=O)N1c1cccc(Cl)c1	13.4
O=C(Cc1ccc(Br)cc1)Nc1cccc(-c2cn3c(n2)SCC3)c1	4.29
COc1cc(O)c(C(CCN2CCN(c3ccccc3)CC2)c2cc(OC)c(OC)c(OC)c2)c(OC)c1 (stereo not shown)	-29.5

Structure (SMILES)	hERG current change (%, negative = inhibition) at 10uM [%]
Cc1nc2nc(-c3cccnc3)nn2c(C)c1Cl	-11.1
CNC(=O)Nc1ccc2nc(C)sc2c1	14.2
COC(=O)c1ccc(C(=O)OC)c(NC(=O)CN(c2ccccc2)S(=O)(=O)N(C)C)c1	-6.89
COc1ccc(NC(=O)Cc2c(O)c3ccccc3[nH]c2=O)cc1	-4.6
CCCCn1c(N)c(N(Cc2ccccc2OC)C(=O)C(C)Oc2ccc(F)cc2)c(=O)[nH]c1=O (stereo not shown)	6.13
C=CCC(CC=C)(NC(=O)c1ccccc1C(=O)O)c1ccccc1	-1.12
CCOC(=O)N1CCN(CCC(=O)Nc2ccc(Br)c(C)c2)CC1.Cl	-35.7
CN(C)C(=O)CCC(=O)N(C)CC1CCCN(CCc2ccc(F)cc2)C1 (stereo not shown)	-38.1
OCC1(Cc2ccccc2)CCN(Cc2ccc(-c3ccco3)cc2)CC1	-66.6
CCOC(=O)C(CC)Sc1ncnc2nc[nH]c12 (stereo not shown)	-12.4
COc1ccc(S(=O)(=O)N(CC(=O)NCc2ccco2)c2ccccc2)cc1OC	-4.97
Cc1nnc(SCC(=O)N2CCN(Cc3ccccc3)CC2)s1	-2.28
NC(=O)N1CCN(C(=O)c2ccco2)CC1	6.37
CN(C)c1nc(C(=O)O)nc(N2CCOCC2)n1	10.7
CC(=O)c1ccc(S(=O)(=O)Nc2cccc(-c3cn4c(n3)SCC4)c2)cc1	10.9
CCCCCC(=O)NC(=S)Nc1ccccc1C(=O)OC	-3.32
CC1CCCN(C(=O)COC(=O)Cc2c[nH]c3ccccc23)C1 (stereo not shown)	1.54
CC(C)CCn1c(SCC(N)=O)nc2c1c(=O)n(C)c(=O)n2C	6.57
